Assay results as given in PubChem BioAssay AID686979 (National Center for Advancing Translational Sciences (NCATS), 2013).
Where “and” joins values, the source holds several entries; their conditions need not be identical. Identical values can stand only once. About 50,000 (12%) of roughly 420,000 compounds were called active. This list was built around the results that the source calls inconclusive (neither active nor inactive); the mix of calls is not that of the screen. The call rests on the fitted dose curve; in most records, active means well fitted inhibition curve with a large enough effect; inconclusive means small, poorly fitted or top-dose-only effect; inactive means flat fitted curve, though single readings scatter. Potencies of inconclusive entries are left out as doubtful fits.

Assay: qHTS for Inhibitors of human tyrosyl-DNA phosphodiesterase 1 (TDP1): qHTS in cells in presence of CPT; further: nearly all actives have a fitted effect of over 55% in size
Settings: chicken DT40 Tdp1-/-;hTDP1 cells + 20 nM CPT, ATP luminescence, 48 h; series mostly up to 46.2 µM
Outline: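 Chicken DT40 Tdp1-/- cells complemented with human TDP1, 400 cells/well, exposed to compounds plus 20 nM camptothecin for at least 48 h at 37 C; viability read as ATP content by CellTiter-Glo luminescence.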
Potency means the concentration at half of the fitted maximal effect; tags describe the fitted curve by direction and shape.

Question: For O=C(O)COc1ccccc1/C=N/NC(=O)CSc1nnc(-c2ccc(Cl)cc2)n1C1CCCCC1, which Potency is on record?
Answer: inactive

Question: Which Potency does the source give for Cc1ccc(S(=O)(=O)N2CCN(c3nc(-c4ccccc4)nc4ccccc34)CC2)cc1 here?
Answer: inactive

Question: With COC(=O)c1ccc(OCC2c3cc(OC)c(OC)cc3CCN2C(=O)C2CC2)cc1 (configuration not stated) as the compound, how does the Potency read?
Answer: inconclusive [inhibitor, single point]

Question: Which Potency does the source give for N#CC1=C(N)Oc2cc(N)ccc2C1c1ccccc1F (configuration not stated) here?
Answer: active: 7.31 µM

Question: Which Potency does the source give for Cc1cc(Nc2ccc(C)c(C)c2)c2ccccc2n1 here?
Answer: inconclusive [inhibitor, single point]

Question: Which Potency does the source give for O=C(Nc1nccs1)[C@@H]1CCCN1S(=O)(=O)c1ccccc1F here?
Answer: inactive

Question: Which Potency does the source give for O=C(N/N=C/c1ccc([N+](=O)[O-])o1)c1cc2c(ccc3ccccc32)o1 here?
Answer: active: 10.3 µM

Question: With CC(C)CN(C(=O)COC(=O)Cc1c[nH]c2ccccc12)c1c(N)n(Cc2ccccc2)c(=O)[nH]c1=O as the compound, how does the Potency read?
Answer: inconclusive [inhibitor, single point]

Question: With CN(CC(=O)Nc1ccc(C#N)cc1)Cc1ccc(Cl)cc1Cl as the compound, how does the Potency read?
Answer: inconclusive [inhibitor, single point]

Question: Which Potency does the source give for CCOC(=O)C1=NNC(C(=O)c2ccc(C)cc2)C1c1ccc(OC)cc1 (configuration not stated) here?
Answer: inconclusive [inhibitor, single point]

Question: With Cc1cc(N(C)C)ccc1/C=C/c1ccnc2ccccc12 as the compound, how does the Potency read?
Answer: active: 11.2 µM

Question: Which Potency does the source give for CCOC(=O)c1c(NC(=O)c2ccc(S(=O)(=O)N3CCOCC3)cc2)sc2c1CC(C)(C)NC2(C)C here?
Answer: inconclusive [inhibitor, single point]

Question: For Cc1nn(C(=O)c2ccc(Cl)cc2)c(C)c1Sc1ccc(Cl)cc1, which Potency is on record?
Answer: inconclusive [inhibitor, single point]

Question: With CCC1CCCCN1CCCNC(=O)CC1Oc2ccccc2NC1=O (configuration not stated) as the compound, how does the Potency read?
Answer: inconclusive [inhibitor, single point]

Question: With Cc1ccc(N(Cc2ccccc2)C(=O)c2cccc(S(=O)(=O)N3CCN(C)CC3)c2)cc1 as the compound, how does the Potency read?
Answer: inconclusive [inhibitor, single point]

Question: For COc1cc2nc(CN3CCN(S(=O)(=O)c4ccccc4C(F)(F)F)CC3)[nH]c(=O)c2cc1OC, which Potency is on record?
Answer: inconclusive [inhibitor, single point]

Question: Which Potency does the source give for CCn1c(SCC(=O)Nc2cc(C)ccc2C)nc2c(c1=O)SC(C)C2 (configuration not stated) here?
Answer: inactive

Question: For C[C@@H](NCCCn1ccc(NC(=O)OCc2ccccc2)nc1=O)c1cccc2ccccc12, which Potency is on record?
Answer: inconclusive [inhibitor, single point]

Question: With CC(=O)N/C(=C\c1ccccc1)C(=O)OCC(=O)Nc1cc(S(=O)(=O)N(C)C)ccc1Cl as the compound, how does the Potency read?
Answer: inconclusive [inhibitor, single point]

Question: With CC(C)Cc1ccc(S(=O)(=O)N2CCCC2)cc1 as the compound, how does the Potency read?
Answer: inconclusive [inhibitor, single point]

Question: With COc1ccccc1NS(=O)(=O)c1ccc(C(=O)N2CCCC(C)C2)cc1 (configuration not stated) as the compound, how does the Potency read?
Answer: inconclusive [inhibitor, single point]

Question: Which Potency does the source give for CC(=O)N1CCc2c(sc(NC(=O)c3ccc4c(c3)OCCO4)c2C#N)C1 here?
Answer: active: 4.11 µM

Question: With CCCSc1nc2sc3c(c2c(=O)n1-c1ccccc1)CCC(C)C3 (configuration not stated) as the compound, how does the Potency read?
Answer: inactive

Question: For CNc1ccc(/C=C2\C=Cc3ccccc32)cc1Cl, which Potency is on record?
Answer: inconclusive [inhibitor, single point]

Question: With Cn1c(N/N=C2\CCCc3ccccc32)nc2c1c(=O)n(Cc1ccc(F)cc1)c(=O)n2C as the compound, how does the Potency read?
Answer: inconclusive [inhibitor, single point]

Question: Which Potency does the source give for C[C@H](C[C@H](O)[C@H]1OC1(C)C)C1=C2C[C@H](O)C3[C@@]4(C)CCC(=O)C(C)(C)C4CC[C@]3(C)[C@@]2(C)CC1 (some centres not stated) here?
Answer: active: 7.31 µM

Question: For CCOC(=O)Cn1cc(Cn2c3ccccc3c(=O)n2C(C)C)nn1, which Potency is on record?
Answer: inactive

Question: With CN(C)C(CNC(=O)c1cccc(S(=O)(=O)N2CCN(c3ccccc3)CC2)c1)c1ccccc1 (configuration not stated) as the compound, how does the Potency read?
Answer: inconclusive [inhibitor, single point]

Question: Which Potency does the source give for CCCCCC(=O)N/N=C(\C)c1ccccn1 here?
Answer: active: 5.8 µM

Question: For Cc1nc(-c2nc(-c3c(C(=O)NNC(=O)Nc4cccc(Cl)c4)noc3C)cs2)cs1, which Potency is on record?
Answer: inconclusive [inhibitor, single point]

Question: Which Potency does the source give for Cc1nc2c3cc(F)ccc3n(Cc3ccccc3)c2s1 here?
Answer: inconclusive [inhibitor, single point]

Question: With CS(=O)(=O)Nc1nc2n(n1)C(c1ccccc1)C=C(c1ccc(Br)cc1)N2 (configuration not stated) as the compound, how does the Potency read?
Answer: inactive

Question: For COc1ccc(CN(Cc2cc3ccc(C)cc3[nH]c2=O)Cc2nnnn2C2CCCC2)cc1, which Potency is on record?
Answer: inconclusive [inhibitor, single point]

Question: With O=S(=O)(NCCS(=O)(=O)N1CCN(c2ccc(F)cc2)CC1)c1ccccc1 as the compound, how does the Potency read?
Answer: inconclusive [inhibitor, single point]

Question: Which Potency does the source give for Cc1ccc(NC(=O)C2CCCN(S(=O)(=O)c3c(C)noc3/C=C/N(C)C)C2)cc1F (configuration not stated) here?
Answer: inconclusive [inhibitor, single point]

Question: For CCOC(=O)c1c(N)sc(C(O)(C(F)(F)F)C(F)(F)F)c1-c1ccccc1, which Potency is on record?
Answer: inconclusive [inhibitor, single point]

Question: With O=C(C1CCC1)N1CCc2cc(S(=O)(=O)NC3CCCC3)ccc21 as the compound, how does the Potency read?
Answer: inconclusive [inhibitor, partial curve]

Question: With CCOc1ccccc1NC(=O)Cn1c(=O)n(C(C)C)c(=O)c2oc3ccccc3c21 as the compound, how does the Potency read?
Answer: inconclusive [inhibitor, single point]

Question: For COc1ccc(NC(=O)CN(C)CC(=O)Nc2ccc(C)c(S(=O)(=O)N3CCCCC3)c2)cc1, which Potency is on record?
Answer: inconclusive [inhibitor, single point]

Question: With CCCCCCCCSc1n[nH]c(N)n1 as the compound, how does the Potency read?
Answer: inconclusive [inhibitor, partial curve, poor fit]

Question: For COCCC1CCCCN1Cc1nc(N2CCCC2)c2cc(OC)c(OC)cc2n1 (configuration not stated), which Potency is on record?
Answer: inconclusive [inhibitor, single point]

Question: Which Potency does the source give for CCNC(=O)C1(C)CCCN(C(=O)c2cc(-c3ccccc3)cs2)C1 (configuration not stated) here?
Answer: inconclusive [inhibitor, single point]

Question: With COc1ccc(/C=N/n2c(N)c(S(=O)(=O)c3cccs3)c3nc4ccccc4nc32)cc1OC as the compound, how does the Potency read?
Answer: inconclusive [inhibitor, partial curve]

Question: With COc1ccc(S(=O)(=O)N(CC(=O)Nc2ccc3c(c2)OCO3)c2ccccc2OC)cc1 as the compound, how does the Potency read?
Answer: active: 20.6 µM

Question: Which Potency does the source give for Cc1ccccc1CSCC(=O)Nc1ccccc1F here?
Answer: inactive

Question: With O=S(=O)(c1ccccc1)N1N=C(c2cccs2)CC1c1ccc(F)cc1 (configuration not stated) as the compound, how does the Potency read?
Answer: inconclusive [inhibitor, single point]

Question: With Cc1c(NS(=O)(=O)c2cccc(C(=O)OCC(=O)c3ccc(Cl)cc3)c2)c(=O)n(-c2ccccc2)n1C as the compound, how does the Potency read?
Answer: inactive

Question: Which Potency does the source give for CCOc1ccc(N(Cc2ccc(OC)cc2)C(=O)c2ccco2)cc1 here?
Answer: inconclusive [inhibitor, single point]

Question: With COc1cc2c(cc1NS(=O)(=O)N1CCCC1)oc1ccccc12 as the compound, how does the Potency read?
Answer: inconclusive [inhibitor, partial curve]

Question: Which Potency does the source give for COc1cccc(NC(=O)CN(C)C(=O)CCNC(=O)c2ccc(Br)cc2)c1 here?
Answer: inconclusive [inhibitor, single point]

Question: For CCOC(=O)c1c(NC(=O)CN2C(=O)NC3(CCC(C)CC3)C2=O)sc(C)c1-c1ccc(C)cc1 (configuration not stated), which Potency is on record?
Answer: active: 20.6 µM

Question: With COc1ccc(C(=O)/C=C/Nc2ccc([N+](=O)[O-])cc2)cc1 as the compound, how does the Potency read?
Answer: inactive

Question: Which Potency does the source give for CN1CCN(/C=N/c2c(C#N)cnn2-c2ccccc2)CC1 here?
Answer: inconclusive [inhibitor, single point]

Question: Which Potency does the source give for Cc1cccc(C(=O)O/N=C(\N)CS(=O)(=O)c2ccccc2)c1 here?
Answer: inactive

Question: Which Potency does the source give for O=[N+]([O-])c1ccccc1S(=O)(=O)Nc1cccc2cccnc12 here?
Answer: active: 794 nM and active: 3.26 µM

Question: With CCCCOc1ccc(NC(=O)C(=O)NCCCn2ccnc2)cc1 as the compound, how does the Potency read?
Answer: inconclusive [inhibitor, single point]

Question: With C=CC(=O)Nc1cccc(Oc2ccnc(Nc3ccc(N4CCN(C)CC4)cc3)n2)c1 as the compound, how does the Potency read?
Answer: inconclusive [inhibitor, single point]

Question: For CCCN(CCC)c1ccc(CC(=O)NC(C)Cc2ccccc2)cc1 (configuration not stated), which Potency is on record?
Answer: inactive

Question: For CC1CCN(C2CC(=O)N(c3ccccc3)C2=O)CC1 (configuration not stated), which Potency is on record?
Answer: active: 20.6 µM

Question: Which Potency does the source give for CCCCNC(=O)c1cccc(S(=O)(=O)N2CC3(C)CC2CC(C)(C)C3)c1 (configuration not stated) here?
Answer: inconclusive [inhibitor, single point]

Question: With COC(=O)c1ccccc1NCCO as the compound, how does the Potency read?
Answer: inactive

Question: Which Potency does the source give for Cc1nn(C)c(C)c1NC(=O)CSc1nc(Cc2ccccc2)nc2c1cnn2-c1ccccc1 here?
Answer: inconclusive [inhibitor, partial curve]

Question: Which Potency does the source give for O=C(N/N=C/C1CCCCC1)c1ccccc1-n1cccc1 here?
Answer: inactive

Question: For COC(=O)c1ccc([C@H](NC(=O)c2ccco2)[C@]2(C)C[C@H]2C2CCCCC2)cc1, which Potency is on record?
Answer: inconclusive [inhibitor, single point]

Question: Which Potency does the source give for O=C(Nc1ccc([N+](=O)[O-])cc1)C(Cc1ccccc1)N1C(=O)c2cccc3cccc(c23)C1=O (configuration not stated) here?
Answer: inconclusive [inhibitor, single point]

Question: Which Potency does the source give for CCc1nc2ccc(C(=O)NCCN3CCOCC3)cn2c1N(C)Cc1ccc(OC)cc1 here?
Answer: inconclusive [inhibitor, partial curve, poor fit]

Question: For COc1cccc(C2CCCN2Cc2nc(CCC(C)C)no2)c1 (configuration not stated), which Potency is on record?
Answer: inconclusive [inhibitor, single point]
